From the supplement of paper PMC11876631
Residue numbers refer to the chain shown, from its start. Names and notes keep the numbering of the source. ± gives the standard deviation of the averaged measurements. Laboratory Escherichia coli strains with one amino-acid change in an essential protein, pooled on minimal glucose agar with carbenicillin or gentamicin at twice the control MIC (plus kanamycin and chloramphenicol for the plasmids), 48 h. Fold change of barcode share against drug-free plates; higher = less susceptible. Active = above 20 in both replicates (the paper's putatively resistant). '<' = one read or none on drug, '>' = one read or none on a drug-free plate. Shares are relative, so most strains fall below 1 when a few take over. Listed are strains with at least 15 reads on both drug-free plates, and hits; most hits rest on fewer reference reads. Replicate rank correlation about 0.5. Edits are read from barcodes.

B1: murI V90Q (protein)
chain: MATKLQDGNTPCLAATPSEPRPTVLVFDSGVGGLSVYDEIRHLLPDLHYIYAFDNVAFPYGEKSEAFIVERVVAIVTAVQERYPLALAVQACNTASTVSLPALREKFDFPVVGVVPAIKPAARLTANGIVGLLATRGTVKRSYTHELIARFANECQIEMLGSAEMVELAEAKLHGEDVSLDALKRILRPWLRMKEPPDTVVLGCTHFPLLQEELLQVLPEGTRLVDSGAAIARRTAWLLEHEAPDAKSADANIAFCMAMTPGAEQLLPVLQRYGFETLEKLAVLG
B2: asnS V74P (protein)
chain: MSVVPVADVLQGRVAVDSEVTVRGWVRTRRDSKAGISFLAVYDGSCFDPVQAVINNSLPNYNEDVLRLTTGCSPIVTGKVVASPGQGQQFEIQASKVEVAGWVEDPDTYPMAAKRHSIEYLREVAHLRPRTNLIGAVARVRHTLAQALHRFFNEQGFFWVSTPLITASDTEGAGEMFRVSTLDLENLPRNDQGKVDFDKDFFGKESFLTVSGQLNGETYACALSKIYTFGPTFRAENSNTSRHLAEFWMLEPEVAFANLNDIAGLAEAMLKYVFKAVLEERADDMKFFAERVDKDAVSRLERFIEADFAQVDYTDAVTILENCGRKFENPVYWGVDLSSEHERYLAEEHFKAPVVVKNYPKDIKAFYMRLNEDGKTVAAMDVLAPGIGEIIGGSQREERLDVLDERMLEMGLNKEDYWWYRDLRRYGTVPHSGFGLGFERLIAYVTGVQNVRDVIPFPRTPRNASF
B3: murI V90P (protein)
chain: B1 chain with Q90P
B4: murI I40A (protein)
chain: B1 chain with I40A, Q90V
B5: murI I40W (protein)
chain: B1 chain with I40W, Q90V
B6: murI I40Q (protein)
chain: B1 chain with I40Q, Q90V
B7: murI V76Q (protein)
chain: B1 chain with V76Q, Q90V
B8: asnS I75A (protein)
chain: B2 chain with P74V, I75A
B9: murI I75A (protein)
chain: B1 chain with I75A, Q90V
B10: murI I75W (protein)
chain: B1 chain with I75W, Q90V
B11: murI I75Q (protein)
chain: B1 chain with I75Q, Q90V
B12: asnS I75W (protein)
chain: B2 chain with P74V, I75W
B13: murI I75D (protein)
chain: B1 chain with I75D, Q90V
B14: murI I75P (protein)
chain: B1 chain with I75P, Q90V

What follows are proteins tested against Escherichia coli (laboratory strain) (assay: barcode share on antibiotic plates over drug-free plates; higher = less susceptible). Conditions: antibiotic: carbenicillin; 2× MIC (3.1 µg/mL).
Procedure: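 A pool of E. coli strains, each edited to carry one amino-acid change in an essential protein, was grown for 48 h on minimal glucose agar with or without antibiotic; strain barcodes were sequenced; mean of two replicates.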

| Protein | fold change of barcode share |
| --- | --- |
| B1 | 0.279 ± 0.021 |
| B2 | 0.376 ± 0.089 |
| B3 | 0.277 ± 0.11 |
| B4 | 1.38 ± 0.78 |
| B5 | 0.405 ± 0.35 |
| B6 | 0.426 ± 0.06 |
| B7 | 0.453 ± 0.22 |
| B8 | 0.27 ± 0.1 |
| B9 | 0.305 ± 0.032 |
| B10 | 0.348 ± 0.015 |
| B11 | 0.472 ± 0.011 |
| B12 | 0.342 ± 0.019 |
| B13 | 0.464 ± 0.051 |
| B14 | 0.611 ± 0.63 |

Same assay, conditions: antibiotic: gentamicin; 2× MIC (MIC 0.45 µg/mL)

| Protein | fold change of barcode share |
| --- | --- |
| B1 | 0.00458 ± 0.00043 |
| B3 | 0.00518 ± 0.0058 |
| B4 | 0.00801 ± 0.00022 |
| B5 | 0.02 ± 0.0088 |
| B6 | 0.00529 ± 0.0029 |
| B7 | < 0.0108 |
| B8 | 0.00883 ± 0.0037 |
| B9 | < 0.0103 |
| B10 | < 0.00756 |
| B11 | 0.0157 ± 0.014 |
| B12 | 0.0549 ± 0.068 |
| B13 | < 0.00743 |
| B14 | < 0.00701 |
